Results from PubChem BioAssay AID504332 (National Center for Advancing Translational Sciences (NCATS), 2011).
Among all 350,000 compounds or so, about 31,000 (8.9%) were called active. This list was built around the results that the source calls inconclusive (neither active nor inactive); the mix of calls is not that of the screen. Calls follow the shape of the dose curve; as a rule, active = well fitted inhibition curve with a large enough effect; inconclusive = small, poorly fitted or top-dose-only effect; inactive = no such curve, though single readings can be large or run the other way. Where the call is inconclusive, the potency comes from a doubtful curve fit.

What follows are compounds tested against Histone-lysine N-methyltransferase EHMT2 (Homo sapiens) (UniProt Q96KQ7) (assay: qHTS Assay for Inhibitors of Histone Lysine Methyltransferase G9a). Settings: G9a H3K9 monomethylation, AlphaScreen, 2 h; activity, negative = inhibition: at 59 µM (top of the series) unless noted.
UniProt Q96KQ7, sequence (Q96KQ7 whole entry, looked up): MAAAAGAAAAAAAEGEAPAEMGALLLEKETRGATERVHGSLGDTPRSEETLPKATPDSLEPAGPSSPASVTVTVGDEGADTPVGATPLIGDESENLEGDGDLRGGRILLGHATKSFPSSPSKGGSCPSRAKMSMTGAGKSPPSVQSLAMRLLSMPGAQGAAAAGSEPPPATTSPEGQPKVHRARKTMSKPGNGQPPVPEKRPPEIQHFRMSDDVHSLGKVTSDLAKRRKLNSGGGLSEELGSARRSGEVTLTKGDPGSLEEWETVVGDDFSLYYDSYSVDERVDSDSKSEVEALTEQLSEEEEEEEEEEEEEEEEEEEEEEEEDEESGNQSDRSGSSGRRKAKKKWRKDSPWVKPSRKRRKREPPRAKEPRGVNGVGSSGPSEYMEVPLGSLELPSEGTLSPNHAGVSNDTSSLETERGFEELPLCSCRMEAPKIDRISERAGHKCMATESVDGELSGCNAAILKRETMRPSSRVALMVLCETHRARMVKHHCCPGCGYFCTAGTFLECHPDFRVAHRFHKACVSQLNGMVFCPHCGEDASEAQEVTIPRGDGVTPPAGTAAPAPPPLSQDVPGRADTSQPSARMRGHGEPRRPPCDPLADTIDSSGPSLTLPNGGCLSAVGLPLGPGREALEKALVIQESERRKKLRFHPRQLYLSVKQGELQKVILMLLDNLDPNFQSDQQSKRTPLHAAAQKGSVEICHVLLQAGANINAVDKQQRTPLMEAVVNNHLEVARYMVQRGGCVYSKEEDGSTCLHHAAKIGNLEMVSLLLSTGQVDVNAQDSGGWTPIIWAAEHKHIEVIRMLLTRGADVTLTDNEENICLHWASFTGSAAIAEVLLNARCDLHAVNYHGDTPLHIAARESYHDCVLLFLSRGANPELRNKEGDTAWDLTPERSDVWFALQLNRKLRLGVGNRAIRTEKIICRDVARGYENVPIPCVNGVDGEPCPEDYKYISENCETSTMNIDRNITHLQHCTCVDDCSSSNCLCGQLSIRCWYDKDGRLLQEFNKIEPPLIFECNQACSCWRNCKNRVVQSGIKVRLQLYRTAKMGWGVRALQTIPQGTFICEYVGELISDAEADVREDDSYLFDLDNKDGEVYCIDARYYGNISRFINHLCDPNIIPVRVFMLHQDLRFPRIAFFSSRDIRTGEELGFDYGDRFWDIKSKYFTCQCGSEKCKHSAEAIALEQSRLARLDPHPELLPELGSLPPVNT
Method in brief: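 AlphaScreen read-out: biotin-H3K9 peptide (500 nM) methylation by 20 nM enzyme with 20 uM SAM, 2 h at room temperature after 15 min compound preincubation; anti-monomethyl H3K9 antibody plus donor/acceptor beads, 10 min dark.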
% is scaled to controls: 0 for no effect and ±100 for the full control effect; potency is read from the fitted curve at half-maximal effect; tags tell the direction and shape of the fitted curve.
Also: nearly all actives have a fitted effect of over 75% in size.

| Compound | Potency | activity, negative = inhibition |
| --- | --- | --- |
| CCN1C(=O)/C(=C/N(C(C)=O)c2ccccc2)N(c2ccccc2)C1=S | inconclusive: 44.7 µM [inhibitor, partial curve] | – |
| COc1ccc(NC(=O)C2CCCNC2)cc1OCC(C)C (stereo unspecified) | inconclusive: 50.1 µM [inhibitor, partial curve] | – |
| Cc1ccc(S(=O)(=O)N2CCN(Cc3noc(CCC(=O)N4CCCCC4)n3)CC2)c(C)c1 | inconclusive: 3.55 µM [inhibitor, partial curve, poor fit] | – |
| CC(=O)NNC(=S)NC(=O)c1ccc(C)cc1 | inconclusive: 28.2 µM [inhibitor, partial curve, poor fit] | – |
| S=C(c1ccc(-c2ccc(Cl)cc2Cl)o1)N1CCCCC1 | – | inconclusive: -133% [inhibitor] |
| Cn1nccc1C(=O)N1CCCC(N2CCN(c3cccc(C(F)(F)F)c3)CC2)C1 (stereo unspecified) | inconclusive: 14.1 µM [inhibitor, partial curve, poor fit] | – |
| COc1cccc(NC(=O)Cn2c(=O)n(-c3ccc(Cl)cc3)c(=O)c3oc4ccccc4c32)c1 | inactive | – |
| CC1=C(C(=O)Nc2cccnc2)C(c2cccc(F)c2)n2nc(SCc3ccccc3)nc2N1 (stereo unspecified) | inactive | – |
| CCCCn1nnc(NC(=S)NC(=O)c2ccc(OCC)c([N+](=O)[O-])c2)n1 | inconclusive: 39.8 µM [inhibitor, partial curve, poor fit] | – |
| CCOC(=O)C1=C(C)Nc2ccccc2N=C1NC(=O)c1ccc(Cl)c(S(=O)(=O)N2CCCC2)c1 | inconclusive: 89.1 µM [inhibitor, single point] | – |
| CCCCNc1ncnc2c1nnn2C | inactive | – |
| CCN1CCN(c2oc(-c3ccc(COc4ccc(C)cc4)o3)nc2C#N)CC1 | inconclusive: 20 µM [inhibitor, partial curve, poor fit] | – |
| CCC(=O)Nc1sc2c(c1C#N)CC(C)(CC)OC2 (stereo unspecified) | – | inactive: -16.2% [at 12.7 µM] |
| Cc1cc(C)nc(-n2nc(C)c(C3(O)C(=O)Nc4ccc(F)cc43)c2N)n1 (stereo unspecified) | inconclusive: 35.5 µM [inhibitor, single point] | – |
| Cc1cc(C(=O)OCC(=O)Nc2cccc(S(=O)(=O)N(C)C)c2)c2ccccc2n1 | inactive | – |
| O=C(O)c1ccc(COc2ccccc2/C=C2\NC(=O)N(Cc3ccccc3)C2=O)cc1 | inconclusive: 89.1 µM [inhibitor, single point] | – |
| Cc1ccn2c(Nc3ccc4c(c3)OCO4)c(-c3ccc(N(C)C)cc3)nc2c1 | active: 2 µM | – |
| COc1ccc(/C=C2\SC(=S)N(Cc3cccnc3)C2=O)cc1C | active: 11.2 µM | – |
| CCOC(=O)N1CCN(C(=S)NC(=O)c2nn(C)cc2Br)CC1 | inconclusive: 70.8 µM [inhibitor, single point] | – |
| O=C(Nc1cccc(F)c1)Nc1ccc2c(c1)CCC2 | inconclusive: 89.1 µM [inhibitor, single point] | – |
| COc1cccc(C2CC(=O)NC(SC)=C2C#N)c1 (stereo unspecified) | inconclusive: 89.1 µM [inhibitor, single point] | – |
| CSCCC(NC(=O)/C(=C\c1ccc(Cl)cc1)NC(=O)c1ccccc1)C(=O)O (stereo unspecified) | inconclusive: 50.1 µM [inhibitor, partial curve] | – |
| Cc1nc(Nc2ccc(Cl)cc2)cc(-c2ccccc2)n1 | inactive | – |
| N#Cc1c(CSCC(=O)O)cc(=O)n2c1[nH]c1ccccc12 | inconclusive: 44.7 µM [inhibitor, partial curve, poor fit] | – |

| Compound | Potency | activity, negative = inhibition |
| --- | --- | --- |
| CCc1ccc[n+](-c2[nH]c(=O)sc2/C=N/N=C(\[O-])c2cccnc2)c1 | inconclusive: 56.2 µM [inhibitor, partial curve, poor fit] | – |
| COc1ccc(-c2[nH]c(-c3ccccc3)nc2SCC(=O)NCc2ccco2)cc1OC | inactive | – |
| COc1cc(OC)cc(C(=O)Oc2c(CN3CCOCC3)cc(Cl)c3cccnc23)c1 | inactive | – |
| O=C(Nc1ccc(N2CCOCC2)c(S(=O)(=O)Nc2cc(Cl)ccc2Cl)c1)c1cccnc1 | inconclusive: 20 µM [inhibitor, partial curve, poor fit] | – |
| O=[N+]([O-])c1cc(Cl)cc2c1nc(NCCO)c1ccccc12 | inconclusive: 25.1 µM [inhibitor, partial curve, poor fit] | – |
| O=C(COC(=O)c1cccs1)Nc1nc(-c2ccccc2)cs1 | active: 39.8 µM | – |
| CCOP(=O)(OCC)C(NC(=O)/C=C/c1ccc(OC)cc1)c1ccccc1 (stereo unspecified) | inactive | – |
| Cc1nc2ccc(S(=O)(=O)CCC(=O)Nc3ccc(C)c(C)c3)cc2s1 | inconclusive: 0.282 µM [inhibitor, partial curve, poor fit] | – |
| Cc1c(CNCCC2=CCCCC2)c(C(=O)O)c(C)n1Cc1ccccc1 | active: 50.1 µM | – |
| O=C(O)COCc1nc2ccccc2s1 | active: 50.1 µM | – |
| CCn1c(SC(C)C(=O)NC2CCCC2)nc2cc(S(N)(=O)=O)ccc21 (stereo unspecified) | inconclusive: 3.98 µM [inhibitor, single point] | – |
| COc1ccccc1/C=C/C1=NC(=C\C=C/c2ccccc2)/C(=O)O1 | inconclusive: 39.8 µM [inhibitor, full curve, poor fit] | – |
| CCOc1cc(C2C3=C(CC(C)(C)CC3=O)OC3=C2C(=O)CC(C)(C)C3)cc([N+](=O)[O-])c1O | – | inconclusive: -66.3% [inhibitor] |
| O=C(NCCCN1CCOCC1)c1cc(-c2ccccc2F)no1 | inactive | – |
| COc1ccc(Cn2c(=O)sc3ccccc32)cc1 | inactive | – |
| c1ccc(CCCN2CCN(c3ccccn3)CC2)cc1 | active: 39.8 µM | – |
| CCc1ccc(NC(=O)C(C)n2nnc3sc(-c4ccccc4)cc3c2=O)cc1 (stereo unspecified) | active: 3.55 µM | – |
| COC(=O)c1sccc1NC(=O)Nc1ccc(C)cc1C | inactive | – |
| C[C@@H]1C(=O)OC2C[C@@]34[C@H]5C[C@@H](C(C)(C)C)[C@@]36C(O)C(=O)O[C@H]6O[C@@]4(C(=O)O5)[C@]21O (stereo partly specified) | inactive | – |
| COc1ccccc1CNC(=O)CN1C(=O)COc2ccc(S(=O)(=O)N3CCC(C)CC3)cc21 | inactive | – |
| O=C(O)c1cc2n(n1)C(C(F)(F)F)CC(c1ccccc1)N2 (stereo unspecified) | inconclusive: 89.1 µM [inhibitor, partial curve, poor fit] | – |
| O=C(c1cccs1)N1CCCN(c2ncnc3scc(-c4ccccc4)c23)CC1 | inconclusive: 79.4 µM [inhibitor, partial curve, poor fit] | – |
| COC(=O)CCSCC(=O)Nc1ccc(S(=O)(=O)N2CCOCC2)cc1OC | inactive | – |
| Cn1c(S(=O)(=O)c2ccc([N+](=O)[O-])cc2)nc(Br)c1Br | inconclusive: 50.1 µM [inhibitor, partial curve, poor fit] | – |

| Compound | Potency | activity, negative = inhibition |
| --- | --- | --- |
| Cc1csc2nc(COC(=O)c3ccccc3NC(=O)COc3ccccc3F)cc(=O)n12 | – | inactive: -1.25% [at 12.7 µM] |
| COc1ccc(-c2noc(CCC(=O)Nc3ccc4c(c3)OCCO4)n2)cc1 | inconclusive: 35.5 µM [inhibitor, partial curve, poor fit] | – |
| O=C(c1ccc(NS(=O)(=O)c2cccs2)cc1)N1CCCCC1 | inconclusive: 28.2 µM [inhibitor, partial curve, poor fit] | – |
| Cc1ccc(CN(C(=O)COc2ccc(Cl)c(C)c2)C2CCS(=O)(=O)C2)o1 (stereo unspecified) | inactive | – |
| Cc1nc2nc(SCC(=O)O)nn2c(C)c1Cc1c(F)cccc1Cl | active: 11.2 µM | – |
| Cc1ccc(-n2c(=O)c3c4c(sc3n(Cc3cccc(Cl)c3)c2=O)CCC4)cc1C | inactive | – |
| Cc1ccc(-c2cn3nc(C)c(C)nc3n2)cc1 | inconclusive: 3.16 µM [inhibitor, single point] | – |
| O=C(Cc1cccc2ccccc12)Nc1cc(C(=O)O)cc(C(=O)O)c1 | inconclusive: 89.1 µM [inhibitor, single point] | – |
| COc1ccc([N+](=O)[O-])cc1NC(=O)C1(c2ccccc2)CCOCC1 | inconclusive: 89.1 µM [inhibitor, single point] | – |
| Cc1cc(C(=O)NC2CCCN(Cc3ccccc3F)C2)n[nH]1 (stereo unspecified) | inactive | – |
| CCN(CC)C(=O)c1sc2nc(-c3ccc(OC)cc3)cn2c1C | inconclusive: 89.1 µM [inhibitor, single point] | – |
| CC(C)c1ccccc1NC(=O)c1cccnc1 | inconclusive: 89.1 µM [inhibitor, single point] | – |
| NC(=O)C1CCN(C(=O)C2CC(=O)N(c3ccc(F)cc3)C2)CC1 (stereo unspecified) | inconclusive: 3.98 µM [inhibitor, partial curve, poor fit] | – |
| Cc1cn([C@H]2C[C@H](N=[N+]=[N-])[C@H](CO)O2)c(=O)[nH]c1=O | inactive | – |
| Cc1cc(C(=O)Nc2ccc(Br)cc2F)n(-c2ccccc2)n1 | inactive | – |
| CCn1cnc2cc(NCc3ccc(Br)cc3)ccc21 | active: 12.6 µM | – |
| COc1ccc(C(=O)N2CCCC(CCC(=O)NCc3ccc(F)c(F)c3)C2)o1 (stereo unspecified) | inconclusive: 50.1 µM [inhibitor, partial curve] | – |
| CCN(CC)S(=O)(=O)c1cc(C(=O)O)c(Cl)cc1Cl | inconclusive: 22.4 µM [inhibitor, single point] | – |
| C=CCn1c(-c2ccccc2)n[nH]c1=S | inactive | – |
| COc1ccc(-c2c3c(=O)n(C)c(=O)n(C)c3c3c(-c4cccc(C)c4)nc4ccccc4n23)cc1 | inconclusive: 39.8 µM [inhibitor, partial curve, poor fit] | – |
| Clc1ccc(C2Nc3cccc4cccc(c34)N2)cc1 | active: 35.5 µM | – |
| C=CCc1cccc(C=NNC(=O)CN2CCN(Cc3ccccc3)CC2)c1O | inconclusive: 0.006 µM [inhibitor, full curve] | – |
| Cc1c(Br)ccc(NC(=O)Cn2nc(-c3cccs3)ccc2=O)c1C | inconclusive: 89.1 µM [inhibitor, partial curve] | – |
